A lower IC50 marks a more sensitive line; fits outside the tested doses are given as limits. AUC is the area under the same curve over the 256-fold range up to the top dose, as a fraction; the more sensitive the line, the further below 1. For some of these results: Where the top dose is marked as inferred, it comes from the curve model; the source does not state it.
Experiments:
Test in all cases: Viability of human cancer cell lines after 72 h of drug (GDSC screen)
IOX2 = compound: O=C(O)CNC(=O)c1c(O)c2ccccc2n(Cc2ccccc2)c1=O [IOX2]; details: top dose 0.1 µM; top dose inferred
Description: (§1)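 Human cancer cell lines in 384-well plates, medium with 10% serum, drug for 72 h over a 256-fold dose range (nine 2-fold or five 4-fold steps up to the top dose). Adherent lines were fixed and stained with the nucleic acid dye Syto60, suspension lines read with resazurin; signal relative to control wells, capped at 0 and 100%. One two-parameter sigmoid per drug and line, fitted in a mixed model over all curves with the slope shared within a line.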

NVP-BHG712 = compound: Cc1ccc(C(=O)Nc2cccc(C(F)(F)F)c2)cc1Nc1nc(-c2cccnc2)nc2c1cnn2C [NVP-BHG712]; details: top dose 10.24 µM; top dose inferred
Description: as §1

Bosutinib = compound: COc1cc(Nc2c(C#N)cnc3cc(OCCCN4CCN(C)CC4)c(OC)cc23)c(Cl)cc1Cl [Bosutinib]; details: top dose 2 µM
Description: as §1

Mitomycin C = compound: CO[C@@]12[C@H](COC(N)=O)C3=C(C(=O)C(C)=C(N)C3=O)N1C[C@@H]1N[C@@H]12 [Mitomycin C]; details: top dose 16 µM
Description: as §1

Midostaurin = compound: CO[C@@H]1[C@H](N(C)C(=O)c2ccccc2)C[C@H]2O[C@]1(C)n1c3ccccc3c3c4c(c5c6ccccc6n2c5c31)C(=O)NC4 [Midostaurin]; details: top dose 0.512 µM; top dose inferred
Description: as §1

| Cell Line | AUC (IOX2) | IC50 (IOX2) [nM] | AUC (NVP-BHG712) | IC50 (NVP-BHG712) [nM] | AUC (Bosutinib) | IC50 (Bosutinib) [nM] | AUC (Mitomycin C) | IC50 (Mitomycin C) [nM] | AUC (Midostaurin) | IC50 (Midostaurin) [nM] |
| --- | --- | --- | --- | --- | --- | --- | --- | --- | --- | --- |
| HO-1-u-1 (head and neck, adherent) | 0.987 | > 100 | 0.976 | > 10200 | 0.917 | > 2000 | 0.261 | 214 | 0.955 | > 512 |
| NCI-H1688 (small cell lung carcinoma, adherent) | 0.985 | > 100 | 0.873 | > 10200 | 0.987 | > 2000 | 0.496 | 974 | 0.976 | > 512 |
| PC-14 (lung adenocarcinoma, adherent) | 0.989 | > 100 | 0.891 | 9700 | 0.771 | 685 | 0.388 | 511 | 0.864 | 370 |
| SW948 (large intestine, adherent) | 0.979 | > 100 | 0.867 | > 10200 | 0.975 | > 2000 | 0.698 | 4730 | 0.933 | > 512 |
| IA-LM (large cell lung carcinoma, adherent) | 0.974 | > 100 | 0.983 | > 10200 | 0.982 | > 2000 | 0.207 | 121 | 0.948 | > 512 |
| GMS-10 (glioma, adherent) | 0.983 | > 100 | 0.988 | > 10200 | 0.919 | > 2000 | 0.652 | 2620 | 0.931 | > 512 |
| Saos-2 (osteosarcoma, adherent) | 0.978 | > 100 | 0.981 | > 10200 | 0.978 | > 2000 | 0.565 | 1620 | 0.877 | > 512 |
| LP-1 (myeloma, suspension) | 0.993 | > 100 | 0.916 | > 10200 | 0.993 | > 2000 | 0.728 | 3890 | 0.986 | > 512 |
| 8305C (thyroid, adherent) | 0.972 | > 100 | 0.957 | > 10200 | 0.928 | > 2000 | 0.273 | 182 | 0.862 | > 512 |
| HCC70 (breast, adherent) | 0.979 | > 100 | 0.937 | > 10200 | 0.987 | > 2000 | 0.475 | 857 | 0.947 | > 512 |
| HCC-78 (lung adenocarcinoma, adherent) | 0.961 | > 100 | 0.917 | > 10200 | 0.979 | > 2000 | 0.405 | 524 | 0.929 | > 512 |
| KMRC-1 (kidney, adherent) | 0.986 | > 100 | 0.957 | > 10200 | 0.984 | > 2000 | 0.775 | 6730 | 0.854 | 445 |
| BICR10 (head and neck, adherent) | 0.981 | > 100 | 0.985 | > 10200 | 0.837 | 1630 | 0.638 | 2570 | 0.913 | > 512 |
| HCC-827 (lung adenocarcinoma, adherent) | 0.983 | > 100 | 0.936 | > 10200 | 0.421 | 73.4 | 0.689 | 3680 | 0.834 | 405 |
| PANC-04-03 (pancreas, adherent) | 0.975 | > 100 | 0.93 | > 10200 | 0.971 | > 2000 | 0.518 | 1150 | 0.958 | > 512 |
| HuO-3N1 (osteosarcoma, adherent) | 0.98 | > 100 | 0.979 | > 10200 | 0.94 | > 2000 | 0.792 | 9930 | 0.702 | 144 |
| NCI-H1944 (lung adenocarcinoma, adherent) | 0.945 | > 100 | 0.905 | > 10200 | 0.956 | > 2000 | 0.189 | 109 | 0.881 | > 512 |
| HT-115 (large intestine, adherent) | 0.988 | > 100 | 0.983 | > 10200 | 0.991 | > 2000 | 0.841 | 9710 | 0.869 | 401 |
| SCC-9 (head and neck, adherent) | 0.924 | > 100 | 0.851 | > 10200 | 0.954 | > 2000 | 0.709 | 4650 | 0.864 | > 512 |
| JHH-7 (liver, adherent) | 0.988 | > 100 | 0.972 | > 10200 | 0.981 | > 2000 | 0.24 | 188 | 0.851 | 355 |
| CP50-MEL-B (melanoma, adherent) | 0.976 | > 100 | 0.72 | 2660 | 0.988 | > 2000 | 0.478 | 874 | 0.984 | > 512 |
| SAS (head and neck, adherent) | 0.974 | > 100 | 0.897 | > 10200 | 0.891 | > 2000 | 0.417 | 577 | 0.984 | > 512 |
